Experimental data: PubChem BioAssay AID1963576 (National Center for Advancing Translational Sciences (NCATS), 2024)
In all, about 46,000 compounds went through this assay and about 60 (0.1%) were called active. Not shown: some 3% with an inconclusive outcome. The call rests on the fitted dose curve; in most records, active means well fitted inhibition curve with a large enough effect; inconclusive means small, poorly fitted or top-dose-only effect; inactive means no such curve, though single readings can be large or run the other way. This is one part of the list.

Experiment: Primary qHTS assay for Inhibitors of ovarian cancer metastasis using an organotypic tumor microenvironment (TME) model. Further: nearly all actives have a fitted effect of over 65% in size.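 On activity change, negative = inhibition: plate controls were DMSO wells for no effect and tomatine positive control wells for full effect.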
Details: SKOV3ip1-GFP adhesion/invasion on 3D omental model, fluorescence; series mostly up to 45.8 µM; activity change, negative = inhibition: at the top concentration
Summary of the method: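 qHTS, 4-pt dose (0.36-46 umol/L); SKOV3ip1-GFP, 1,200 cells/well, no FBS; primary omental fibroblast/mesothelial co-culture 48 h pre-grown; 2 h RT + 16 h 37 C; PBS wash, 4% PFA; GFP count 488/509 nm.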

Activity change, negative = inhibition, inactive:
COc1cccc(CNC(=O)Cc2c(C)c3c(cc(C)c4c(C)coc43)oc2=O)c1 0.689%
CC1=NN(c2ccccc2)C(=O)C1 -18%
Cc1nn(-c2nc(-c3ccc(F)cc3)cc(C(F)(F)F)n2)c(C)c1Cl -9.33%
CCc1ccc(CNC(=O)c2ccc3nc(C(C)C)oc3c2)cc1 -7.83%
CCc1ccc(NC(=O)C(=O)NCC(c2cccnc2)N2CCN(C)CC2)cc1 (stereo not drawn) -3.93%
O=C(Nc1ccc2oc(-c3cccnc3)nc2c1)c1ccc(-c2ccccc2)o1 -7.37%
COc1ccc(OC(C)c2nc3ccccc3[nH]2)cc1 (stereo not drawn) 0.761%
O=c1cc(-c2ccc(F)cc2)nc(SCc2nc(-c3ccccc3Cl)no2)[nH]1 2.51%
CCOC(=O)c1ccc(NC(=O)c2csc3c2CCCCC3)cc1 -13.9%
COc1cc(NC(=O)C(CC(C)C)NS(=O)(=O)c2ccc3c(c2)oc(=O)n3C)c(C(=O)O)cc1OC (stereo not drawn) 1.57%
CCOc1ccc(NC(=O)C(=O)NCCc2csc3nc(-c4ccccc4F)nn23)cc1 -5.04%
COC(=O)c1ccc(Cl)cc1NC(=O)N(C)CCc1c(C)nn(C)c1C -3.99%
Cc1cccc(N2CCN(C(=O)c3cc4c(=O)n(C)c5ccccc5c4s3)CC2)c1C 3.78%
O=C(O)c1ccc2nc(-c3cc4cc(F)ccc4oc3=O)[nH]c2c1 -1.2%
O=C(COc1ccccc1Cl)Nc1ccc(Cl)c(-c2nc3ccccc3o2)c1 -5.89%
Cc1ccc(-n2ccnc(NCCc3ccc(S(N)(=O)=O)cc3)c2=O)cc1C -1.39%
CCC1CCCCN1C(=O)CSc1nc2c([nH]c3ccccc32)c(=O)n1-c1cccc(OC)c1 (stereo not drawn) -4.78%
COc1ccc(CCn2c3c(c(=O)[nH]c2=O)C(NC(=O)c2ccccc2OC)(C(F)(F)F)C(=O)N3)cc1OC (stereo not drawn) 23.6%
CCc1cccc(C)c1Nc1c(-c2cccc(O)c2)nc2cnccn12 21.2%
CCOC(=O)C1=C(CN2CCN(c3ccccc3F)CC2)NC(=O)NC1c1ccc(OC)cc1 (stereo not drawn) 49.7%
CCOc1ccccc1NC(=O)Cn1nc2c3cc(F)ccc3n(Cc3cccc(C)c3)cc-2c1=O 11.3%
COc1ccccc1CNC(=O)Cn1c(-c2cccs2)cc2cc(F)ccc21 -1.37%
CCOC(=O)c1ccc(NC(=O)c2cc3c(=O)n(C)c4ccccc4c3n2C)cc1 12.3%
Cn1c(=O)cc(SCC(=O)Nc2cccc(C#N)c2)c2ccc(Cl)cc21 -0.0519%
Cc1ccc(C)c(NC(=O)C(=O)NCCc2csc(-c3cccc(F)c3)n2)c1 -1.82%
CCCCCNC(=O)N1CCC(CN(Cc2ccc(Cl)cc2)Cc2ccc([N+](=O)[O-])s2)C1 (stereo not drawn) 12.1%
Cc1ccc(CN2CCc3nc(N4CCN(C)CC4)ncc3C2)cc1 -7.2%
COc1ccc(C(=O)N2CCC(c3ccncc3)CC2)cc1OC -4.66%
COc1ccc(N2CCN(C(=O)Cc3noc4ccc(C)cc34)CC2)cc1 -2.2%
COC(=O)c1ccc(OC)c(CN2CCCN(Cc3ccc(C)cc3)S2(=O)=O)c1 7.73%
COc1cc2c(cc1OC)C(COc1ccc3c(C)cc(=O)oc3c1)N(C(=O)c1ccc(C)c(C)c1)CC2 (stereo not drawn) -1.78%
Cc1ccc(C)c(N2CCN(C(=O)c3ccc4c(c3)c(C)c(C)n4C)CC2)c1 28.1%
CCOc1ccccc1C1CC(=O)NC(C)=C1C(=O)OCc1ccc(C)cc1 (stereo not drawn) 8.13%
COc1ccc(Nc2nnc(-c3ccc(C)c(S(=O)(=O)N4CCN(C)CC4)c3)c3ccccc23)cc1 -4.29%
Cc1nc2sccn2c(=O)c1S(=O)(=O)NCc1ccccc1 -13.8%
COc1ccc(Cl)cc1C(=O)NCC(c1ccc(N(C)C)cc1)N1CCOCC1 (stereo not drawn) 19%
Cc1oc2c(c1C(=O)Nc1ccc(Cl)cc1F)C1=NCCN1C=N2 95.1%
CC1CCCN(c2csc3ccccc3c2=O)C1 (stereo not drawn) 3.02%
CC(C)c1nn2c(=O)cc(COC(=O)c3ccccc3NC(=O)c3cccs3)nc2s1 -6.78%
O=C(N[C@H](CO)[C@H](O)c1ccc([N+](=O)[O-])cc1)C(Cl)Cl -8.26%
CCOc1ccc(N(Cc2cc3cc(C)ccc3[nH]c2=O)C(=O)c2cccc(Cl)c2)cc1 3.49%
CCn1c2ccccc2c2nnc(N3CCN(c4cccc(C)c4C)CC3)nc21 -8.75%
O=C(NCCCN1CCOCC1)c1ccc2c(c1)N(Cc1ccccc1)C(=O)c1ccccc1S2 15.4%
Cc1ccc(C)c(CN2CCC(CNC(=O)Cn3ncc4c([nH]c5ccccc54)c3=O)CC2)c1 -0.0371%
Cc1ccc(-n2ncc3c(NCCc4ccccc4)ncnc32)cc1C -0.887%
Cc1cccc(OCCCCn2nnc3sc4c(c3c2=O)CCC(C)C4)c1 (stereo not drawn) -3.18%
O=C(Cn1nc(N2CCN(c3ccccc3)CC2)ccc1=O)NCc1cccc(Cl)c1 -1.5%
CCOc1ccc(NC(=O)NC(C)c2c(-n3cccc3)sc(C)c2C)cc1 (stereo not drawn) 1.22%
COc1ccc(-n2c(/C=C/c3cc(OC)c(OC)cc3OC)nc3cc4ccccc4cc3c2=O)cc1Cl -23.3%
O=C(COc1ccccc1)Nc1ccc(C(=O)OCc2cc(=O)n3nc(C4CC4)sc3n2)cc1 19.7%
CCOC(=O)c1cc(-c2ccc(F)cc2)n(CC(=O)NC2CCCCC2)c1C 2.98%
O=C(CN1CCCN(Cc2ccccc2Cl)S1(=O)=O)Nc1ccc2c(c1)OCCO2 -7.9%
Cc1cc(C)n2c(Nc3c(C)cccc3C)c(-c3ccsc3)nc2n1 4.61%
COc1ccc(-c2c(C)nn3c(C(F)(F)F)cc(-c4ccc(Br)cc4)nc23)cc1 4.94%
CCc1cccc(C)c1NC(=O)CN1CCCN(Cc2ccc(C)cc2)S1(=O)=O -17.7%
O=C(Cc1cccs1)NC1CC(=O)N(c2ccccc2)C1 (stereo not drawn) -1.35%
CCOc1ccc(CCNC(=O)c2ccc(CS(=O)(=O)Cc3ccccc3Cl)o2)cc1OCC -6.5%
CNC1[C@H](O)C(O[C@@H]2C(O)C(O[C@H]3O[C@H]([C@@H](C)NC)CC[C@H]3N)[C@@H](N)C[C@H]2N)OC[C@]1(C)O (stereo partly drawn) 6.39%
CCOc1ccc(-c2ccc(NS(=O)(=O)c3cc(C)c(C)cc3C)cc2)nn1 7.86%
O=C(c1cc2c(=O)[nH]c3ccccc3c2s1)N1CCN(c2ccc(F)cc2)CC1 3.66%
CC(NC(=O)CCn1c(=O)c2cccn2c2ccc(F)cc21)c1ccccc1 (stereo not drawn) -1.85%
CCOc1ccc(C(=O)Nc2ccc(-c3nc4cc(CC)ccc4o3)cc2)cc1 1.38%
CCCOc1ccc(Nc2nc(SC)ncc2C(=O)OCC)cc1 -13.8%
COC(=O)c1ccc(NC(=O)Nc2nnc(N(C)C3CCCCC3)s2)cc1 -3.62%
O=C(CCn1c(=O)c2cccn2c2ccc(F)cc21)NCCc1ccccc1Cl 4.24%
COc1cccc2c1Oc1nc(-c3ccccc3)nc(SCC(=O)N3CCCCC3)c1C2 2.89%
COc1ccc(CN2COc3ccc4c(C)cc(=O)oc4c3C2)cc1 -9.46%
COc1cccc(NC(=O)c2oc3ccccc3c2NC(=O)C23CC4CC(CC(C4)C2)C3)c1 15.1%
COc1ccccc1NC(=O)Cn1c(=O)n(Cc2ccccc2)c(=O)c2ccccc21 3.22%
COc1ccc(-c2nc3nc(C)cc(Nc4ccc(C(C)=O)cc4)n3n2)cc1 48.4%

outcome, inactive:
CCOc1ccc(NC(=O)Nc2ccc3snnc3c2)cc1
CC(=O)N1CCC2(CC1)OC(=O)C(C)=C2C(=O)NCc1ccc(Cl)cc1
Cn1ccc2c(OCC(=O)NCc3ccccc3Cl)cccc2c1=O
CCOc1ccc(NC(=O)Cn2cc(C(=O)c3ccc(C)c(C)c3)c(=O)c3cc(OC)c(OC)cc32)cc1
Cc1ccc(CN2CCN(C3CCN(S(=O)(=O)c4ccc(C)cc4)CC3)C(=O)C2=O)cc1
Cc1oc(-c2cccc(Cl)c2)nc1CSc1nc2ncccc2[nH]1
COc1cc(C(=O)Nc2ccc(NC(=O)c3ccc(Br)cc3)cc2)cc(OC)c1OC
Cc1ccc(CNC(=O)CCc2c(C)nn(-c3ccc(N4CCCC4)nn3)c2C)cc1
COC(=O)CSc1ccc2nnc(CCNS(=O)(=O)c3ccc(C)cc3)n2n1
COc1ccc(/C=C/c2nc(C#N)c(NC3CCCCC3)o2)cc1OC
O=C(CCS(=O)(=O)c1cc2c3c(c1)CCN3C(=O)CC2)NCc1ccc(Cl)cc1
COc1cc2c(C(=O)N3CCN(c4ccc(C)cc4)C(C)C3)cn(CC(C)C)c(=O)c2cc1OC (stereo not drawn)
COc1ccc(CCNC(=O)c2cc(-c3ccc(Cl)cc3)on2)cc1OC
COc1cccc(NC(=O)CCc2nc(-c3cc(OC)c(OC)c(OC)c3)no2)c1
CCc1ccc(NC(=O)Cn2ccn(-c3cccc(Cl)c3)c(=O)c2=O)cc1
Cc1cccc(C)c1OCC(=O)N(Cc1ccc(Cl)cc1)CC1CCCO1 (stereo not drawn)
CCCN(Cc1cccs1)C(=O)Nc1ccccc1C
Cn1c(=O)c2c(nc(NCCc3ccccc3)n2Cc2ccc(Cl)c(Cl)c2)n(C)c1=O
CCOC(=O)C1CCN(CCC(=O)Nc2ccccc2Cl)CC1
COc1ccc(S(=O)(=O)NCCc2cn3ccsc3n2)cc1OC
CCOC(=O)CSc1nc2sc3c(c2c(=O)n1Cc1ccccc1)CC(C)CC3 (stereo not drawn)
CCOc1ccccc1CNC(=O)CN1C(=O)CCCc2ccccc21
Cc1ccc(OCCSc2nc3ccc(NC(=O)COc4ccc(F)cc4)cc3s2)cc1
CCN(CC)CCNC(=O)C1CCN(S(=O)(=O)c2c(C)noc2/C=C/c2ccccc2F)CC1
Cc1nc2nc(SCC(=O)NCc3ccccc3)nn2c(C)c1Cc1ccccc1Cl
CCN(C(=O)COc1cc(=O)n(C)c2ccccc12)c1cccc(C(F)(F)F)c1
Cc1ccccc1CN1CCc2nc(Nc3ccc4c(c3)OCCO4)ncc2C1
COc1ccc(NC(=O)C(=O)NCCc2csc(-c3ccc(Cl)cc3)n2)cc1
